From PubChem BioAssay AID463173 (ICCB-Longwood Screening Facility, Harvard Medical School, 2010) come the findings set out here.

Screen size: about 52,000 compounds; about 4,300 (8.3%) were called active. Rule as the data show it: active = survival mostly below about 52% (no sharp cut-off); inactive = mostly above about 56%. The list shows a part of the results.

The assay has as its system DeltatarO mutant. Put plainly: S. aureus survival, RN4220 and DeltatarO strains – OD600, teichoic acid synthesis inhibitors, primary screen (AID 463173). To be noted: S. aureus RN4220 wild type/DeltatarO growth, OD600, 18 h, stronger effect = lower value, screened at 18.75 µg/mL (by protocol).
`Cc1cccn2c(Nc3ccc4c(c3)OCCO4)c(-c3ccc(Br)o3)nc12`: the survival was inactive: 80%. For `COc1ccc(OC)c(CNC(=O)c2cc(-c3ccc(Cl)s3)nc3ccccc23)c1` the value was inactive: 71%; for `Cc1ccc(-n2nc(C(=O)NCCc3cccc(C)c3)c3c4ccccc4n(C)c3c2=O)cc1`, inactive: 135%; for `COc1ccccc1NC(=O)c1oc2ccccc2c1NC(=O)c1ccc(S(=O)(=O)N(C)C)cc1`, inactive: 51%. Take `COc1ccccc1NC(=O)CN1CCN(CC(=O)Nc2ccc(F)c(F)c2)CC1`: the survival was inactive: 126%. For `COC(=O)c1ccc(Cl)cc1NC(=O)Nc1nnc(N(C)Cc2ccccc2)s1` the value was inactive: 96%. For `COc1ccc(C2c3c(-c4ccccc4O)n[nH]c3C(=O)N2CCc2ccccc2)cc1` (stereo not drawn) the value was active: 21%; for `CCC(C(=O)OC)n1nnc2sc(-c3ccccc3)cc2c1=O` (stereo not drawn), inactive: 57%; for `COc1ccc2c(c1)c(=O)c(C(=O)c1ccc(C)cc1)cn2Cc1ccccc1F`, inactive: 68%. On to `CCOC(=O)c1ccc(CN(Cc2ccc(Br)cc2)S(=O)(=O)c2cccc(C(F)(F)F)c2)cc1`, for which the survival is inactive: 84%. For `Cc1cc(C)cc(NC(=O)C(=O)NCC(c2cccnc2)N2CCc3ccccc32)c1` (stereo not drawn) the value was active: 43%.

`Cn1c(=O)c2sccc2n2c(CCC(=O)Nc3ccc(F)cc3)nnc12`: the survival is inactive: 73%. For `COc1ccc(OC)c(-c2noc(N3CCN(c4cc(Cl)ccc4C)CC3)n2)c1` the value was inactive: 130%; for `Cc1ccc(C)c(NC(=O)CSc2nnc(C)n3c2cc2occc23)c1`, inactive: 66%. For `CCC1CCCCN1CCCNC(=O)c1ccc2c(c1)sc1nc(-c3ccc(F)cc3)cn12` (stereo not drawn) the value was active: 14%; for `CCOc1ccc(OCC)c(S(=O)(=O)N2CCC(C)CC2)c1`, inactive: 94%. Regarding `CC(OC(=O)c1cc2sccc2n1C)C(=O)NCc1cccs1` (stereo not drawn), the survival was inactive: 98%. As for `CC(C)COc1ccc(Nc2ncnc3ccc(Br)cc23)cc1`, the survival was inactive: 70%. For `Cc1cccc(NC(=O)NC2COc3ccccc3C2)c1C` (stereo not drawn) the value was inactive: 69%.

For `Cc1ccc(CN(Cc2ccco2)C(=O)c2cccc(C)c2)cc1`, the survival was inactive: 68%. For `COC(=O)c1sccc1S(=O)(=O)N(CC(=O)NCc1ccc(F)cc1)c1ccc(C)c(C)c1` the value was inactive: 87%. For `CNS(=O)(=O)c1cn(CC(=O)N2CCN(c3ccc(C)cc3C)CC2)cc1S(=O)(=O)NC` the value was inactive: 75%; for `Cc1ccc(N2C(=O)CS(=O)(=O)C23C(=O)N(Cc2ccccc2F)c2ccccc23)cc1Cl` (stereo not drawn), inactive: 60%. For `O=C(COc1ccccc1Cl)Nc1ccccc1OCc1cc(=O)n2ccccc2n1`, the survival was inactive: 92%. For `CN(c1ccccc1)C(CNS(=O)(=O)c1ccccc1)c1ccccc1` (stereo not drawn) the value was inactive: 82%; for `CCCCN(CC)CCNc1ncnc2onc(-c3ccc(Cl)cc3)c12`, inactive: 96%. For `CCOC(=O)N1CCN(CCC(=O)Nc2cccc(Cl)c2C)CC1` the value was inactive: 92%; for `Cc1ccc(Cl)cc1N1CCN(C(=O)c2cn(CC(C)C)c(=O)c3c2c2ccccc2n3C)CC1`, inactive: 95%. For `Cc1ccc(CCNC(=O)c2ccc(CNS(=O)(=O)c3ccc(C)cc3)cc2)cc1` the value was inactive: 71%. With `CCCN1CCCc2cc(CN)ccc21`, the survival is inactive: 82%. For `O=C(c1cccs1)N1CCN(c2ccc(Cl)cc2)CC1` the value was inactive: 94%. For `CCOC(=O)c1nc(Nc2ccc(Cl)cc2)c2c(C)noc2n1` the value was inactive: 68%. For `CC(=O)Nc1ccc(S(=O)(=O)N2CCN(Cc3ccccc3Cl)CC2)cc1` the value was active: 62%; for `O=C(Nc1cc(C(F)(F)F)ccc1Cl)c1ccc2c(c1)CCN2S(=O)(=O)c1ccccc1`, inactive: 48%. Take `COc1cc(OC)cc(-c2cc3nc(-c4ccccc4)cc(N4CCN(c5ccccc5)CC4)n3n2)c1`: the survival is inactive: 101%. Turning to `CCc1ccc(CNC(=O)C(CC)n2nc(C)c3c(C)n(-c4ccccc4)nc3c2=O)cc1` (stereo not drawn), the survival was inactive: 106%.

Consider `CCCNc1ccc(-c2nc(-c3ccco3)no2)cc1[N+](=O)[O-]`, for which the survival was active: 57%. In the case of `O=C(O)CCC(=O)N1N=C(c2ccccc2)CC1c1ccc2nccnc2c1` (stereo not drawn), the survival was inactive: 99%. For `CN1CCN(C(=O)c2ccccc2C(=O)O)CC1` the value was inactive: 96%. Take `COc1ccc(CNc2nc(-c3ccco3)nn2C(=O)CC(C)C)cc1`: the survival is inactive: 103%. Regarding `CCOC(=O)c1[nH]c2ccccc2c1NC(=O)c1ccccc1OC`, the survival was active: 51%. For `CC(Oc1ccccc1)C(=O)Nc1nnc(S(=O)(=O)N2CCCCCC2)s1` (stereo not drawn) the value was inactive: 50%; for `COc1ccc(C(=O)Nc2nnc(S(=O)(=O)N3CCN(c4ccc(C)cc4)CC3)s2)cc1`, active: 48%. Take `Cc1ccccc1C(=O)Nc1cccc(-c2cn3cccnc3n2)c1`: the survival was inactive: 82%. `Cc1ccc(Oc2nc3c(c(=O)n(Cc4ccccc4Cl)c(=O)n3C)n2C)cc1C`: the survival is inactive: 61%. For `COc1ccc(-c2cc3nc(C)c(CCC(=O)Nc4ccc(F)cc4F)c(C)n3n2)c(OC)c1` the value was inactive: 84%; for `COc1cccc(-c2cc(C(=O)Nc3ccc4c(c3)OCO4)no2)c1`, inactive: 69%. As to `Cc1cn2c(=O)cc(COc3cccc(NC(=O)c4ccccc4Cl)c3)nc2s1`, the survival is inactive: 72%.

Turning to `COc1ccc(N2CCN(C(=O)c3ccc4c(c3)N(Cc3cc(C)ccc3C)C(=O)c3ccccc3S4=O)CC2)cc1` (stereo not drawn), the survival was inactive: 85%. For `COc1cccc(N2CC(NC(=O)C3CCCCC3)CC2=O)c1` (stereo not drawn) the value was inactive: 144%; for `CC(=O)c1c(C)oc2ccc(NS(=O)(=O)c3ccc(C(C)C)cc3)cc12`, inactive: 78%; for `CCS(=O)(=O)N1CCCC(c2nc3c(nnn3Cc3ccc(C)cc3)c(=O)[nH]2)C1` (stereo not drawn), inactive: 88%. For `CN(C(=O)CSc1nc(N)cc(=O)[nH]1)c1ccccc1` the value was inactive: 94%.

For the compound `CCSc1ncc(Cl)c(C(=O)Nc2sc3c(c2C(=O)NC)CCCC3)n1`, the survival was inactive: 82%. For `CC(Oc1ccccc1F)C(=O)Nc1ccc(-c2nc3ccccc3s2)cc1` (stereo not drawn) the value was inactive: 107%; for `CCc1cccc(NC(=O)CN(C)S(=O)(=O)c2cccc3cccnc23)c1`, inactive: 59%.

In the case of `CC1CCc2c(sc(NC(=O)c3cc4nc(-c5ccc(Cl)cc5)cc(C(F)(F)F)n4n3)c2C#N)C1` (stereo not drawn), the survival is inactive: 91%. For `CC(=O)c1ccc(N2CCN(C(=O)CCS(=O)(=O)c3ccc4c(c3)oc(=O)n4C)CC2)cc1` the value was inactive: 83%.
